Results: PubChem BioAssay (NCATS)
The shares of active, inactive and inconclusive entries below differ from those in the screen. A potency beside an inconclusive call is a rough fit, not a confirmed value. Activity calls are given as the source filed them. Calls follow the shape of the dose curve; as a rule, active = well fitted inhibition curve with a large enough effect; inconclusive = small, poorly fitted or top-dose-only effect; inactive = no such curve, though single readings can be large or run the other way.

Molecular target: Retinaldehyde dehydrogenase 3 (Homo sapiens) (UniProt P47895)
Experiment: qHTS for Inhibitors of the Aldehyde Dehydrogenase Family (ALDH1A3) Primary screen (AID 2061315)
Details: ALDH inhibition qHTS; series mostly up to 56 µM
Potency is read from the fitted curve at half-maximal effect; tags tell the direction and shape of the fitted curve.

Structure (SMILES)	Potency
Cn1nc(C(C)(C)C)cc1C(=O)N[C@@H](Cc1cccc(Cl)c1)C(=O)NCC#N	inactive
CCCN(Cc1cccs1)c1ncnc2ccc(-c3ccc4c(c3)OCO4)cc12	inactive
COc1cc2ncnc(Nc3ccc(O)cc3)c2cc1OC	inconclusive: 17.8 µM [inhibitor, partial curve, poor fit]
Cc1nc(CNc2ncnc3ccc(-c4oc(-c5ccccc5)nc4C)cc23)cs1	inactive
C/C=C1/[C@H](O[C@@H]2O[C@H](CO)[C@@H](O)[C@H](O)[C@H]2O)OC=C(C(=O)OC)[C@H]1CC(=O)OCCc1ccc(OC(=O)C[C@@H]2C(C(=O)OC)=CO[C@@H](O[C@@H]3O[C@H](CO)[C@@H](O)[C@H](O)[C@H]3O)/C2=C/C)cc1	inconclusive: 3.98 µM [inhibitor, single point]
CC/C=C\C(O)C(O)C1=C(C)C(=O)C2(O1)C(=O)NC(OC)(C(=O)c1ccccc1)C2O (configuration not stated)	inconclusive: 12.6 µM [inhibitor, single point]
CC(/C=C/[C@]1(O)[C@@]2(C)CO[C@@]1(C)C[C@@H](O)C2)=C\C(=O)O[C@@H]1O[C@H](CO)[C@@H](O)[C@H](O)[C@H]1O	inactive
FC(F)(F)c1cc(Cl)cc(-c2ccc(CNc3nc(-c4ccccc4C(F)(F)F)nc4ccccc34)cc2)c1	inconclusive: 3.55 µM [inhibitor, full curve, poor fit]
COc1ccc(OC)c(NC(=O)c2ccccc2OC(C)=O)c1	inconclusive: 4.47 µM [inhibitor, partial curve, poor fit]
CC(=O)NC(c1cc(Cl)c2ccccc2c1O)C1CC1 (configuration not stated)	inconclusive: 39.8 µM [inhibitor, partial curve, poor fit]
CC(C)S(=O)(=O)N[C@H]1CCOC[C@@H]1c1ccc(-c2ccc(C#N)s2)cc1	inconclusive: 14.1 µM [inhibitor, partial curve, poor fit]
CN1CCc2ccc3c4c2[C@]1(C)Cc1cccc(c1-4)OCO3	inconclusive: 0.501 µM [inhibitor, full curve, poor fit]
CN1CCN(c2ccc(-c3cc(O)c4ncccc4c3)cc2)CC1	inconclusive: 11.2 µM [inhibitor, partial curve, poor fit]
CC(=O)N[C@H]1[C@H](O[C@H]2CC[C@@]3(C)C(CC[C@]4(C)C3CC=C3C5CC(C)(C)CC[C@]5(C(=O)O)[C@H](O[C@@H]5O[C@H](CO)[C@@H](O)[C@H](O)[C@H]5O)C[C@]34C)C2(C)C)O[C@H](CO[C@@H]2OC[C@H](O)[C@H](O)[C@H]2O[C@@H]2OC[C@@H](O)[C@H](O)[C@H]2O)[C@@H](O)[C@@H]1O (some centres not stated)	inconclusive: 3.98 µM [inhibitor, single point]
C=Cc1ccc(C(=O)N2CCCC(CCC(=O)N3CCN(c4ccccn4)CC3)C2)cc1 (configuration not stated)	inconclusive: 7.94 µM [inhibitor, partial curve, poor fit]
C[C@@H]1O[C@@H](O[C@H]2[C@H](O)[C@@H](O)[C@H](OC(=O)[C@]34CCC(C)(C)C[C@H]3C3=CCC5[C@@]6(C)CC[C@H](O[C@@H]7O[C@H](C(=O)O)[C@@H](O)[C@H](O)[C@H]7O)C(C)(C)C6CC[C@@]5(C)[C@]3(C)CC4)O[C@@H]2CO)[C@H](O)[C@H](O)[C@H]1O (some centres not stated)	inconclusive: 5.62 µM [inhibitor, single point]
CC(C)=CCc1c(O)cc2oc3cc(C)cc(O)c3c2c1C	inactive
O=S(=O)(c1cccc(C(F)(F)F)c1)N1CCN(S(=O)(=O)c2ccc3c(c2)OCCO3)CC1	inactive
Fc1ccc2nc(CCC#Cc3ccccn3)cn2c1	inconclusive: 4.47 µM [inhibitor, partial curve, poor fit]
CC1(C)OB(c2ccc(O)c3ncc(N4CCNCC4)cc23)OC1(C)C	inconclusive: 12.6 µM [inhibitor, partial curve]
C=C1[C@H]2[C@H](O[C@@H]3O[C@H](COC(=O)/C=C/c4cc(OC)c(O)c(OC)c4)[C@@H](O)[C@H](O)[C@H]3O)OC=C(C(=O)O)[C@H]2C[C@@H]1O	inconclusive: 3.98 µM [inhibitor, partial curve, poor fit]
COc1cc(OC)cc(-c2nnc3n2N=C(c2ccccc2OC)CS3)c1	inactive
